These results are taken from the supplement of paper PMC3656093.

SMILES strings stand for the structures. ± gives the standard deviation of the averaged measurements. Over roughly 1,900 compounds, “CD40L-induced NF-kB luciferase activity, plate-corrected, relative to DMSO (0) and IKK inhibitor VII (-100) controls” has its median near 0.032; the lowest 2% begin near -26. The list shows a part of the results.

The assay deals with BL2-NFkB-Luc. Kind of assay: CD40L-induced NF-kB luciferase activity, plate-corrected, relative to DMSO (0) and IKK inhibitor VII (-100) controls (% normalized activity); higher = more NF-kB reporter activity (less inhibition). The following applies: 9.4 µM; stimulus: tCD40L 64 ng/ml; 4.5 h. As for the experimental part:
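BL2 B cells with a stable NF-kB response-element luciferase reporter (BL2-NFkB-Luc), 384-well. Cells were pre-incubated with compound at 9.4 uM for 1 h at 37 C, then stimulated with 64 ng/ml trimerized CD40L for 4.5 h; luciferase was read with Steady-Glo. Signal was normalised per plate in Genedata (median DMSO neutral control = 0, median IKK inhibitor VII at 50 uM = -100) with Assay Median plate-pattern correction; duplicate plates.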
As for `CC1Cc2ccccc2N1NC(=O)c1ccc(Cl)c(S(N)(=O)=O)c1` (configuration not stated), the “CD40L-induced NF-kB luciferase activity” value was determined as 5.58 ± 4.4.
For the compound `COc1ccc(C2=C(CN(C)C)C(c3ccccc3)c3ccccc3O2)cc1` (configuration not stated), the “CD40L-induced NF-kB luciferase activity” value amounted to 30.6 ± 5.3.
In the case of `CC(C)(C)[C@]1(O)CCN2C[C@H]3c4ccccc4CCc4cccc(c43)[C@@H]2C1`, the “CD40L-induced NF-kB luciferase activity” value was 0.507 ± 1.8.
As for `CCOC(=O)c1cccc(C(=O)OCC)n1`, the “CD40L-induced NF-kB luciferase activity” value is -2.95 ± 2.1.
In the case of `O=C(Cc1ccccc1[N+](=O)[O-])NCCCN1CCOCC1`, the “CD40L-induced NF-kB luciferase activity” value was -0.1 ± 0.66.
`COc1ccc(C2CC(c3c(O)cc(C)oc3=O)=NCCS2)c(OC)c1` (configuration not stated): the “CD40L-induced NF-kB luciferase activity” value came to 24 ± 8.
For `COc1cc(Cl)cc2c1Sc1ccccc1/C2=C/CCN(C)C`, the “CD40L-induced NF-kB luciferase activity” value worked out at 2.69 ± 3.6.
For `O=C(COc1ccccc1)Nc1ccc2c(c1)C(=O)N(CC1CCCO1)C2=O` (configuration not stated), the “CD40L-induced NF-kB luciferase activity” value was -2.32 ± 4.8.
Regarding `O=C1C(Cc2c[nH]c3ccccc23)NC(=S)N1Cc1ccccc1` (configuration not stated), the “CD40L-induced NF-kB luciferase activity” value was -6.07 ± 2.
As for `CCOc1ccccc1OCCOc1ccc(F)cc1`, the “CD40L-induced NF-kB luciferase activity” value is -0.323 ± 0.64.
In the case of `CC[C@H]1OC(=O)[C@H](C)[C@@H](O[C@H]2C[C@@](C)(OC)[C@@H](O)[C@H](C)O2)[C@H](C)[C@@H](O[C@@H]2O[C@H](C)C[C@H](N(C)C)[C@H]2O)[C@](C)(O)C[C@@H](C)[C@@H]2N[C@@H](COCCOC)O[C@H]([C@H]2C)[C@]1(C)O`, the “CD40L-induced NF-kB luciferase activity” value was -2.65 ± 8.
With `COc1ccc2c(CC(=O)NCC3CCC(C(=O)O)CC3)cc(=O)oc2c1` (configuration not stated), the “CD40L-induced NF-kB luciferase activity” value was -6.39 ± 0.21.
Take `O=C1CC2(CCCC2)CC(=O)N1CCCCN1CCN(c2ncccn2)CC1`: the “CD40L-induced NF-kB luciferase activity” value was -7.3 ± 4.7.
For `CC(C)(C)n1c(=O)[nH]c2c(c1=O)CCC2`, the “CD40L-induced NF-kB luciferase activity” value turned out to be 4.79 ± 6.9.
Take `CCC(C(=O)OCCN(CC)CC)c1ccccc1` (configuration not stated): the “CD40L-induced NF-kB luciferase activity” value is 1.71 ± 4.8.
With `COc1ccc(N2C(=O)[C@@H]3Cc4ccccc4CN3C2=O)cc1`, the “CD40L-induced NF-kB luciferase activity” value amounted to 3.23 ± 6.2.
With `CN(C)c1ccc(CNCCC(Cc2ccccc2)c2ccco2)cc1` (configuration not stated), the “CD40L-induced NF-kB luciferase activity” value was -1.81 ± 1.7.
As to `CCS(=O)(=O)Nc1cc(OC)c(OC)cc1Cc1nccc2cc(OC)c(OC)cc12`, the “CD40L-induced NF-kB luciferase activity” value is 1.88 ± 2.5.
Turning to `CCCN1CCC(NC(=O)Nc2ccc(Br)cc2)CC1`, the “CD40L-induced NF-kB luciferase activity” value is -5.69 ± 4.5.
Consider `Fc1ccc(-n2cc(CNCCc3ccccn3)c(-c3ccccc3Cl)n2)cc1`, for which the “CD40L-induced NF-kB luciferase activity” value is -5.15 ± 9.2.
Turning to `CC(=O)Nc1ccc(S(=O)(=O)c2ccc(N)cc2)cc1`, the “CD40L-induced NF-kB luciferase activity” value was found to be 6.46 ± 2.4.
For `COc1cccc(=O)c2c(C)n(CC(=O)c3ccccc3)c(C)c12`, the “CD40L-induced NF-kB luciferase activity” value was 0.818 ± 0.62.
Turning to `CCn1nc(C(=O)O)c(=O)c2cc3c(cc21)OCO3`, the “CD40L-induced NF-kB luciferase activity” value is -0.227 ± 0.73.
Take `CC(C(=O)O)c1ccc(N2Cc3ccccc3C2=O)cc1` (configuration not stated): the “CD40L-induced NF-kB luciferase activity” value was -43.6 ± 2.8.
With `Cc1ccc(Cl)c(Nc2ccccc2C(=O)O)c1Cl`, the “CD40L-induced NF-kB luciferase activity” value is -0.677 ± 5.4.
Turning to `CON=C(C(=O)N[C@@H]1C(=O)N2C(C(=O)O)=C(COC(C)=O)CS[C@H]12)c1csc(N)n1`, the “CD40L-induced NF-kB luciferase activity” value was -0.342 ± 3.9.
Turning to `COc1ccc2[nH]c3c(=O)n(N=C[C@H]4C(C)C=C(C)CC4C)c(=O)[nH]c3c2c1` (some centres not stated), the “CD40L-induced NF-kB luciferase activity” value is -1.93 ± 0.38.
For the compound `CCN1CCN(c2cc3c(cc2F)c(=O)c(C(=O)O)cn3C2CC2)CC1`, the “CD40L-induced NF-kB luciferase activity” value came to 0.896 ± 7.7.
Then `Cc1nnc(NS(=O)(=O)c2ccc(N)cc2)s1`, with -4.9 ± 1.5.
Turning to `CC1CC(OC(=O)C(O)c2ccccc2)CC(C)(C)N1C` (configuration not stated), the “CD40L-induced NF-kB luciferase activity” value was 4.2 ± 2.
Then `CC(=O)OCC(OC(C)=O)C(OC(C)=O)C(OC(C)=O)C(=O)Nc1cccc(C)c1` (configuration not stated), with 2.36 ± 0.76; and `O=C(NCCc1c[nH]c2ccccc12)c1cccnc1`, with 12.2 ± 0.3; and `CCCOc1ccc(-c2cc(C(=O)NCC3CCCO3)c3ccccc3n2)cc1` (configuration not stated), with 24.6 ± 4.1.
On to `CC1(C)O[C@@H]2C[C@H]3[C@@H]4CCC5=CC(=O)C=C[C@]5(C)[C@@]4(F)[C@@H](O)C[C@]3(C)[C@]2(C(=O)CO)O1`, for which the “CD40L-induced NF-kB luciferase activity” value is -31.3 ± 5.1.
Regarding `COc1ccc(/C=C\c2nc(=O)c3ccccc3o2)cc1`, the “CD40L-induced NF-kB luciferase activity” value was -4.35 ± 5.1.
Turning to `CC(CCc1oc2ccc(Cl)cc2c1-c1ccc(C)o1)=NO`, the “CD40L-induced NF-kB luciferase activity” value was determined as 4.28 ± 0.44.
`O=C(O)CCCc1ccccc1`: the “CD40L-induced NF-kB luciferase activity” value stood at 3.79 ± 3.9.
Regarding `O=C(CCC1CCCN(C(=O)c2ccsc2)C1)NCc1ccc(F)c(F)c1` (configuration not stated), the “CD40L-induced NF-kB luciferase activity” value is 6.26 ± 6.2.
As for `Cc1cccc(C(=O)c2cccc(C)c2)c1`, the “CD40L-induced NF-kB luciferase activity” value worked out at 4.75 ± 5.7.
With `N#C/C(=C/c1ccccc1)C(=O)NCc1ccccc1`, the “CD40L-induced NF-kB luciferase activity” value was -1.8 ± 1.4.
`COc1cc(C2CC(=O)NC3=C2C(=O)CC(C)(C)C3)ccc1O` (configuration not stated): the “CD40L-induced NF-kB luciferase activity” value worked out at 7.59 ± 2.5.
On to `COc1cc(COc2ccc3c(C)c(Cc4ccccc4)c(=O)oc3c2)cc(OC)c1OC`, for which the “CD40L-induced NF-kB luciferase activity” value is -0.264 ± 1.1.
Then `O=C(O)[C@H](Cc1ccccc1)NC(=O)N1CCC(Cc2ccccc2)CC1`, with 1.1 ± 0.14.
Regarding `COc1ccc(CC(=O)NCC2(c3ccc(OC)c(OC)c3)CCOCC2)cc1`, the “CD40L-induced NF-kB luciferase activity” value worked out at 0.938 ± 3.2.
As for `CC(C)(C)NC[C@H](O)COc1nsnc1N1CCOCC1`, the “CD40L-induced NF-kB luciferase activity” value is 3.57 ± 6.9.
Then `C[C@]12CCC(=O)C=C1CC[C@@H]1[C@@H]2[C@@H](O)C[C@@]2(C)[C@H]1CC[C@]2(O)C(=O)COC(=O)CCC(=O)O`, with -23.2 ± 7.1; and `Fc1cccc(Cc2noc(CN3CCN(c4cnccn4)CC3)n2)c1`, with 2.25 ± 3.4; and `COc1ccc2c(=O)c(-c3cnn(-c4ccccc4)c3)c(C)oc2c1`, with 1.2 ± 0.96.
With `Cn1c(Oc2ccc3c(c2)OCO3)nc2c1c(=O)n(Cc1ccccc1)c(=O)n2C`, the “CD40L-induced NF-kB luciferase activity” value was -1.64 ± 0.6.
The same measure for `CCOc1ccc(C(=O)Nc2ccc(N3CCN(C(C)=O)CC3)cc2)cc1[N+](=O)[O-]`: -1.43 ± 3.
Then `O=C(Cc1ccccc1)NCC(=O)OCC(=O)c1ccccc1Cl`, with -3.84 ± 5.3; and `Cc1cnc(C(=O)N2CCCC(C(=O)c3ccc(Cl)cc3C)C2)cn1` (configuration not stated), with -3.18 ± 1.1.
